{
  "source": "the supplement of paper PMC3334620",
  "note": "The full ranking holds about 33,000 sequences; the median of “E-score (-0.5 to 0.5)” is about -0.013, and the highest 2% start at about 0.3. The list shows a part of the results.",
  "data": [
    {"molecular_target": "T1, Msn1 (UniProt P22148)", "T1 sequence": "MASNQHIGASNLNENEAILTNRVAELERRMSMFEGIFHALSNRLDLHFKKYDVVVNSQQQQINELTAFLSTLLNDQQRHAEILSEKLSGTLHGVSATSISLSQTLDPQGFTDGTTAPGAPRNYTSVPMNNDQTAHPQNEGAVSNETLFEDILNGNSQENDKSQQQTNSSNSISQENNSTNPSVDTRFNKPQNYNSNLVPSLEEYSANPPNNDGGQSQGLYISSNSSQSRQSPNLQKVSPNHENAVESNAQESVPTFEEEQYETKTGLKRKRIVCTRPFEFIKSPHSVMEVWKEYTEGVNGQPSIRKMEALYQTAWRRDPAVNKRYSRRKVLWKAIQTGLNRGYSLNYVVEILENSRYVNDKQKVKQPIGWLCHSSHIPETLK", "experiment": "PBM E-score (8-mer binding enrichment) (E-score (-0.5 to 0.5)); higher = stronger / more preferred TF binding; most listed sequences are background and not binding sites", "settings": "protein concentration: 200 nM; construct: GST-full length", "procedure,_shortened": "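E-scores (a modified Wilcoxon-Mann-Whitney statistic) were assigned by the Universal PBM Analysis Suite to every ungapped eight-base word pooled with its reverse complement. The input came from universal all-10-mer Agilent arrays made double-stranded by primer extension and probed with GST-tagged yeast transcription factors at about 100-200 nM. Fluorescent anti-GST detected bound protein, and masliner normalised the scans.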", "values": [
      {"sequence": "AAAGGCAT", "PBM E-score": -0.0977},
      {"sequence": "AATCCTTG", "PBM E-score": 0.168},
      {"sequence": "GGAGGCGA", "PBM E-score": -0.248},
      {"sequence": "ATTCTCAG", "PBM E-score": 0.101},
      {"sequence": "ATCAGAAA", "PBM E-score": 0.0721},
      {"sequence": "AACGCCCC", "PBM E-score": 0.017},
      {"sequence": "ACTTTCAT", "PBM E-score": 0.0582},
      {"sequence": "AATAGGGC", "PBM E-score": -0.122},
      {"sequence": "CAGGTGGA", "PBM E-score": -0.193},
      {"sequence": "TGTAACAA", "PBM E-score": 0.0916},
      {"sequence": "CGTCTGAC", "PBM E-score": -0.051},
      {"sequence": "CTTAACTA", "PBM E-score": 0.188},
      {"sequence": "ATCTTAAG", "PBM E-score": 0.034},
      {"sequence": "CTAGTGAG", "PBM E-score": -0.133},
      {"sequence": "GCTCCAGA", "PBM E-score": -0.0316},
      {"sequence": "AATCCCAC", "PBM E-score": -0.147},
      {"sequence": "CGTCGCCC", "PBM E-score": -0.134},
      {"sequence": "CCCCAGCC", "PBM E-score": -0.271},
      {"sequence": "CATTACGC", "PBM E-score": -0.0393},
      {"sequence": "ATGTGGGC", "PBM E-score": -0.0708},
      {"sequence": "CACAGCTA", "PBM E-score": -0.0605},
      {"sequence": "CGATAGGA", "PBM E-score": -0.162},
      {"sequence": "ACGGACGG", "PBM E-score": 0.00266},
      {"sequence": "AAGCGATG", "PBM E-score": 0.082},
      {"sequence": "GGAGATTA", "PBM E-score": -0.121},
      {"sequence": "TGGGCCAA", "PBM E-score": -0.0623},
      {"sequence": "GAAAACAA", "PBM E-score": 0.18},
      {"sequence": "ATAAGCAT", "PBM E-score": 0.0942},
      {"sequence": "CAGGTGGG", "PBM E-score": -0.175},
      {"sequence": "CAAGATAC", "PBM E-score": 0.115},
      {"sequence": "ATGGAAGA", "PBM E-score": -0.155},
      {"sequence": "ATGTATAA", "PBM E-score": 0.264},
      {"sequence": "CGGTGATC", "PBM E-score": -0.174},
      {"sequence": "TGAACGCA", "PBM E-score": -0.0234},
      {"sequence": "AATCTTCG", "PBM E-score": 0.0326},
      {"sequence": "AGCCGACA", "PBM E-score": -0.00627},
      {"sequence": "CTATCTCC", "PBM E-score": -0.0897},
      {"sequence": "AGCGACAC", "PBM E-score": 0.0837},
      {"sequence": "AACTGTCG", "PBM E-score": 0.078},
      {"sequence": "AATCCTCC", "PBM E-score": -0.227},
      {"sequence": "ACGGCTGA", "PBM E-score": 0.00781},
      {"sequence": "CCTTCTTC", "PBM E-score": -0.316},
      {"sequence": "AAAGTTGA", "PBM E-score": 0.098},
      {"sequence": "CCTCTACA", "PBM E-score": -0.142},
      {"sequence": "ATGTTTGG", "PBM E-score": 0.0609},
      {"sequence": "GATCTTGA", "PBM E-score": 0.0536},
      {"sequence": "AAGCGCCG", "PBM E-score": 0.1},
      {"sequence": "CCAACAAC", "PBM E-score": -0.0621},
      {"sequence": "GGACGAAA", "PBM E-score": 0.287},
      {"sequence": "TAAAAGCA", "PBM E-score": -0.035},
      {"sequence": "AGGCCACC", "PBM E-score": -0.296},
      {"sequence": "TCTTGGAA", "PBM E-score": -0.0574},
      {"sequence": "AGAATAAT", "PBM E-score": -0.064},
      {"sequence": "AGGCTCAC", "PBM E-score": -0.126},
      {"sequence": "AGCATTTC", "PBM E-score": 0.186},
      {"sequence": "CACTTAAA", "PBM E-score": 0.0414},
      {"sequence": "CTTCGGAA", "PBM E-score": 0.206},
      {"sequence": "GACCCCCC", "PBM E-score": -0.413},
      {"sequence": "ATACTTCG", "PBM E-score": 0.123},
      {"sequence": "GTGGGTTA", "PBM E-score": -0.0624},
      {"sequence": "CATAATAC", "PBM E-score": -0.00236},
      {"sequence": "ATTCTAGC", "PBM E-score": 0.0901},
      {"sequence": "CAGATATG", "PBM E-score": 0.0698},
      {"sequence": "TCAAAGAA", "PBM E-score": -0.0114},
      {"sequence": "ATACTAAT", "PBM E-score": 0.122},
      {"sequence": "GCATTGGA", "PBM E-score": -0.145},
      {"sequence": "GCCATGCC", "PBM E-score": -0.0334},
      {"sequence": "GAAGGGTA", "PBM E-score": -0.158},
      {"sequence": "CGGAATAG", "PBM E-score": 0.0199},
      {"sequence": "TATCTTCA", "PBM E-score": -0.0214},
      {"sequence": "CGGTTGCC", "PBM E-score": 0.134},
      {"sequence": "GAGAGAAC", "PBM E-score": -0.203},
      {"sequence": "ACTGGAAT", "PBM E-score": -0.0242},
      {"sequence": "CGCAGGGC", "PBM E-score": -0.0851},
      {"sequence": "AATGTTAG", "PBM E-score": 0.0507},
      {"sequence": "CACAAGCG", "PBM E-score": -0.153},
      {"sequence": "GCTCCTGA", "PBM E-score": -0.142},
      {"sequence": "GGTGCTAA", "PBM E-score": -0.0143},
      {"sequence": "AATCAATG", "PBM E-score": 0.151},
      {"sequence": "AATCTACG", "PBM E-score": -0.0949},
      {"sequence": "GTGTGAGA", "PBM E-score": -0.117},
      {"sequence": "ACGGCCAC", "PBM E-score": -0.0537},
      {"sequence": "ATGGTTGA", "PBM E-score": -0.138},
      {"sequence": "CACAACTA", "PBM E-score": 0.0811},
      {"sequence": "CTCACAAA", "PBM E-score": -0.057},
      {"sequence": "CGCGTGGC", "PBM E-score": -0.0512}
    ]}
  ]
}
